Reference: the antibiotic and cytotoxicity screens of Wong et al. (2023)
Some of the results follow.

System: HSkMC (human skeletal muscle cells)
Assay: cytotoxicity call (relative viability < 0.9)
Conditions: 10 µM

Structure (SMILES)	cytotoxicity call
C[C@H]1CN([C@@H](C)CO)C(=O)Cc2cc(NC(=O)Cc3ccccc3)ccc2O[C@H]1CN(C)S(=O)(=O)c1cn(C)cn1	inactive
C[C@@H]1CCCCO[C@H](CN(C)S(=O)(=O)c2cccs2)[C@@H](C)CN([C@H](C)CO)C(=O)c2cc(NS(=O)(=O)c3ccc(Cl)cc3)ccc2O1	inactive
COc1ccc(S(=O)(=O)Nc2ccc3c(c2)C(=O)N([C@@H](C)CO)C[C@H](C)[C@H](CN(C)S(=O)(=O)c2c(C)noc2C)O3)cc1	inactive
C[C@@H]1CN([C@H](C)CO)C(=O)c2cccc(NC(=O)Nc3ccccc3)c2O[C@@H]1CN(C)S(C)(=O)=O	inactive
C[C@@H]1CN([C@@H](C)CO)C(=O)c2cccc(NC(=O)c3cnccn3)c2O[C@H]1CN(C)S(C)(=O)=O	inactive
CN1C(=O)c2cc(NC(=O)c3cccs3)ccc2OC[C@H]2O[C@@H](CC(=O)NCC(F)(F)F)CC[C@H]21	inactive
Cn1cnc(S(=O)(=O)N[C@@H]2C=C[C@H](CC(=O)NCC3CC3)O[C@@H]2CO)c1	inactive
COc1ccc(S(=O)(=O)N(C)C[C@H]2Oc3ccc(NC(=O)C4CC4)cc3CC(=O)N([C@H](C)CO)C[C@@H]2C)cc1	inactive
O=c1nc(C(F)(F)F)[nH]c2nc[nH]c12	inactive
C[C@@H]1CN([C@H](C)CO)C(=O)c2cc(C#Cc3ccccc3F)cnc2O[C@@H]1CN(C)C(=O)Cc1ccncc1	inactive
C[C@H]1CN([C@@H](C)CO)C(=O)c2c(c3ccccc3n2C)-c2ccccc2CO[C@H]1CN(C)Cc1cccc(C(F)(F)F)c1	inactive
C[C@@H]1CN([C@H](C)CO)C(=O)CCCn2nncc2CO[C@@H]1CN(C)C(=O)c1cc(-c2ccccc2)on1	inactive
Cc1noc(C)c1S(=O)(=O)Nc1ccc2c(c1)CC(=O)N([C@@H](C)CO)C[C@H](C)[C@@H](CN(C)Cc1ccc(Oc3ccccc3)cc1)O2	inactive
O=C(Nc1cccc2cccnc12)[C@@H]1[C@H](c2ccc3ccccc3c2)CC(=O)N1C(=O)OCc1ccccc1	inactive
CC(=O)O[C@@H]1[C@@H](OC(C)=O)[C@H](C)O[C@@H](O[C@H]2[C@H](OC/C=C(\C)CC/C=C(\C)CC/C=C(\C)CCC=C(C)C)O[C@H](CO[C@@H]3O[C@@H](C)[C@H](O)[C@@H](O)[C@H]3O)[C@@H](O)[C@@H]2O)[C@@H]1OC(C)=O	inactive
C[C@@H]1CN([C@@H](C)CO)C(=O)c2cc(NC(=O)c3ccncc3)ccc2O[C@H]1CN(C)S(=O)(=O)c1cccs1	inactive
Cc1nnc(CN)o1	inactive
C[C@@H]1CN([C@H](C)CO)C(=O)c2cc(C#CC3(O)CCCC3)cnc2O[C@@H]1CN(C)C(=O)Cc1ccccc1	inactive
C[C@H]1CN([C@@H](C)CO)C(=O)c2cc(NC(=O)Cn3cnnn3)ccc2O[C@H]1CN(C)Cc1ccc(Cl)c(Cl)c1	inactive
C[C@@H]1CN([C@@H](C)CO)C(=O)c2cccc(NC(=O)Nc3ccccc3)c2O[C@@H]1CN(C)Cc1ccc(Cl)c(Cl)c1	inactive

Structure (SMILES)	cytotoxicity call
C[C@@H]1CN([C@H](C)CO)C(=O)c2cc(NC(=O)Nc3ccccc3)ccc2O[C@@H]1CN(C)Cc1ccc(C(F)(F)F)cc1	active
O=C(NCc1ccncc1)C(=O)NC[C@H]1OCCN1C(=O)c1ccc(Cl)cc1	inactive
C[C@@H]1CN([C@H](C)CO)C(=O)Cc2cc(NS(=O)(=O)c3cn(C)cn3)ccc2O[C@@H]1CN(C)S(=O)(=O)c1cn(C)cn1	inactive
C[C@@H]1CN([C@@H](C)CO)S(=O)(=O)c2ccc(C#Cc3cccnc3)cc2O[C@@H]1CN(C)C(=O)CN(C)C	inactive
Cn1cnc(S(=O)(=O)N2C[C@H](O)COC[C@H]3O[C@H](CC(=O)NC4CCCC4)CC[C@@H]32)c1	inactive
CO[C@@H](CN(C)C(=O)c1ccc2c(c1)OCO2)[C@H](C)CN([C@@H](C)CO)S(=O)(=O)c1ccc(Cl)cc1	inactive
C[C@H]1CCCCO[C@H](CN(C)C(=O)C2CCCCC2)[C@@H](C)CN([C@@H](C)CO)C(=O)c2cc(NC(=O)c3ccccc3)ccc2O1	inactive
CN1CCN(C(=O)C[C@@H]2CC[C@H]3[C@H](COc4ccc(NC(=O)c5cccs5)cc4C(=O)N3C)O2)CC1	inactive
CC#N	inactive
C[C@H]1CCCCO[C@H](CN(C)C(=O)Nc2ccc3c(c2)OCO3)[C@@H](C)CN([C@@H](C)CO)C(=O)c2cc(NC(=O)Cc3ccccc3)ccc2O1	inactive
C[C@@H]1CCCCO[C@@H](CN(C)S(=O)(=O)c2ccc(Cl)cc2)[C@H](C)CN([C@@H](C)CO)C(=O)c2cc(NS(=O)(=O)c3ccccc3)ccc2O1	inactive
COC(=O)c1nnc(N)[nH]1	inactive
C[C@@H]1CN([C@H](C)CO)C(=O)c2cccc(NS(=O)(=O)c3cn(C)cn3)c2O[C@H]1CN(C)C(=O)Nc1ccc(F)cc1	inactive
C[C@H](CO)N1C[C@H](C)[C@H](CN(C)Cc2ccc(Oc3ccccc3)cc2)Oc2ccc(NC(=O)CCCN(C)C)cc2C1=O	inactive
OC[C@H]1O[C@H](Nc2ccccc2)C[C@@H]1O	inactive
O=C(C[C@H]1C=C[C@@H](NC(=O)C2CC2)[C@H](CO)O1)NCCCN1CCOCC1	inactive
CO[C@@H]1CN(C)C(=O)c2ccc(NC(=O)Nc3ccc(F)cc3)cc2OC[C@@H](C)N(C(=O)c2ccc(F)cc2)C[C@H]1C	inactive
O=S(=O)(NCC[C@@H]1CC[C@@H](NS(=O)(=O)c2ccccc2Cl)[C@@H](CO)O1)c1ccc(F)cc1	inactive
Cc1noc(C)c1NC(=O)N(C)C[C@H]1Oc2c(NC(=O)C3CCOCC3)cccc2C(=O)N([C@H](C)CO)C[C@@H]1C	inactive
C[C@H]1CN([C@@H](C)CO)C(=O)c2cc(NC(=O)Nc3cccc4ccccc34)ccc2O[C@@H]1CN(C)Cc1ccccc1	inactive
